Measurements reported in a collection of fitness landscapes (doi:10.1016/j.celrep.2020.107928).
Whole data set: some 81,000 sequences, median “one-hybrid fitness for binding parS DNA” near -0.17, cut for the highest 2% near 0.51. Some of the results follow.

B1: Caulobacter ParB omega fusion; a variant is named by its letters at X, in order, B8GW30 (parent)
chain: MESVVVGEPGMSEGRRGLGRGLSALLGEVDAAPAQAPGEQLGGSREAPIEILQRNPDQPRRTFREEDLEDLSNSIREKGVLQPILVRPSPDTAGEYQIVAGERAWRAAQRAGLKTVPIMVRELDDLAVLEIGIIENVQRADLNVLEEALSYKVLMEKFERTQENIAQTIGKSXSHVANXMRLLXLPDEVQSYLVSGELTAXHARAIAAAADPVALAKQIIEGGLSVRETEALARKAPNLSAGKSKGGRPPRVKDTDTQALESDLSSVLGLDVSIDHRGSTGTLTITYATLEQLDDLCNRLTRGI

Variants of: B1
Test: one-hybrid fitness for binding parS DNA (scaled: cognate 1, non-cognate 0); higher = stronger binding
Details: with parS DNA site
Procedure, shortened: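 On M9-minus-histidine containing 0.1 mM IPTG and 5 mM 3-AT, E. coli USO cells with a HIS3 reporter, site 19 bp from the promoter, grew 48 hours at 37°C to select Caulobacter ParB libraries randomised at four specificity codons. Plasmids from before and after were Illumina-sequenced, with three replicate libraries pooled and variants under 10 reads left out. Fitness is the log change in variant-to-wild-type read ratio, rescaled against cognate and non-cognate.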

one-hybrid fitness for binding parS DNA, 0.89:
RILT

one-hybrid fitness for binding parS DNA, ≤ 0.2:
KLLG
IFGG
EPKR
KQKV
HTRS
PVTR
LSCV
KSLI
KVIG
CFVS
VSPN
NNEC
HTER
KLRF
IPSV
MLYP
QYLW
VTYY
WFES
EGPK
CMSC
TSNL
SEAY
LTSL
PLNL
PSEN
CACR
RDWS
TRKC
VDCY
HSAS
HAER
KVGT
DATM
GYSD
WLIM
TGHY
YLKI
GALW
EYSA
YFAR
KMHR
PLLL
QEAL
EEAR
GDGA
KQER
CLRL
PAQR
NPSV
MMKG
LCTD
QSKN
LKDP
DDYL
SQWT
TQCT
QLPL
NMGP
ATVC
EPWI
LYLR
NYTC
QVKM
DHIS
QVNF
NCGW
CVKD
KFGV
IYDF
QNQE
EPLH
QSMP
PSVL
SVAA
YPSN
HYRV
TEIF
SCPA
INDR
HVNT
KPLG
VRTH
QVSI
SKTV
RINK
PSQV
IDSK
AMHF
PTIS
AGFF
FTWC
REPF
QKED
SCVF

one-hybrid fitness for binding parS DNA, 0.847:
RQYT
